From the supplement of paper PMC10126150
Values marked as one replicate rest on one cluster of the flow cell; about a third of the high ones do not repeat.
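Further: ATP exposure 15 min at 22 °C before imaging.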

What follows are sequences tested on ATP (assay: switch fluorescence ratio, 500 uM ATP over buffer (Cy3 cluster intensity, sum of 5 cycles each) (fold (ratio)); higher = stronger signal-on switching upon ATP binding; sequences stand for … in TCGTCGGCAGCGTCAGATGTGTATAAGAGACAGTTTTTTTTTTTTTTTTTTTTTTTTT…TC). Conditions: aptamer strand: ATP DNA aptamer (quencher-CACCTGGGGGAGTATTGCGGAGGAAGG + anchor), 100 nM annealed; ATP concentration: 500 uM; one replicate.
In short: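 Clusters with intensities outside 100-1000 RFU were excluded. The remaining Cy3-labelled switching-strand clusters on a modified Illumina MiSeq flow-cell had been annealed to 100 nM quencher-labelled ATP aptamer and imaged in selection buffer, then after 15 min with 500 uM ATP at 22 °C, for five cycles separated by NaOH stripping and re-annealing. The fluorescence ratio, averaged per switch-domain sequence, is each cluster's summed target-cycle Cy3 intensity over its summed buffer-cycle Cy3 intensity.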
TCCGTGCGTA showed a switch fluorescence ratio of 1.26. TCCGTGTAGT gave a switch fluorescence ratio of 1.03. For TCCGTTACTG, the switch fluorescence ratio was 1.1. For TCCGTTGAGC, the switch fluorescence ratio was 1.11. Sequence TCCGTTTTTG has a switch fluorescence ratio of 1.02. TCCTACAGGT was tested, and the switch fluorescence ratio was 1.04. TCCTACCAGT gave a switch fluorescence ratio of 1.67. TCCTACCCGG gave a switch fluorescence ratio of 1.02. Work on TCCTATGAGT yielded a switch fluorescence ratio of 1.03. TCCTATTGG gave a switch fluorescence ratio of 1.03. TCCTCATTGG was tested, and the switch fluorescence ratio was 1. For TCCTCTTTGT, the switch fluorescence ratio was 1.05. With TCCTGAAGGG the switch fluorescence ratio was 1.01. TCCTGATTAG was tested, and the switch fluorescence ratio was 0.965. In the case of TCCTGCTGAT, the switch fluorescence ratio is reported as 0.993. Work on TCCTGGACGG yielded a switch fluorescence ratio of 1.02. For TCCTGGGTCG, the switch fluorescence ratio was 0.965. In the case of TCCTGGTTGG, the switch fluorescence ratio is reported as 1.02. With TCCTGTAACT the switch fluorescence ratio was 1.05. For TCCTGTCG, the switch fluorescence ratio was 1.3. TCCTGTCTGG gave a switch fluorescence ratio of 0.985. TCCTTCAAAT gave a switch fluorescence ratio of 1.21. Sequence TCCTTGAGAT has a switch fluorescence ratio of 1.02. Work on TCCTTGCGGA yielded a switch fluorescence ratio of 1.12. For TCCTTGGTAA, the switch fluorescence ratio was 1.03. TCCTTTCAGG gave a switch fluorescence ratio of 0.988. TCCTTTGGCA gave a switch fluorescence ratio of 1.18. For TCGAAAAATA, the switch fluorescence ratio was 1.02. In the case of TCGAAATGTG, the switch fluorescence ratio is reported as 0.991. TCGAACACAG was tested, and the switch fluorescence ratio was 1.03. Work on TCGAACACGA yielded a switch fluorescence ratio of 1.05. With TCGAAGTATT the switch fluorescence ratio was 1.04. In the case of TCGAAGTCCA, the switch fluorescence ratio is reported as 0.927. Work on TCGAAGTCGA yielded a switch fluorescence ratio of 1.1. With TCGACAACAG the switch fluorescence ratio was 0.994. In the case of TCGACCAATT, the switch fluorescence ratio is reported as 1.39. TCGACGAGAG showed a switch fluorescence ratio of 1. In the case of TCGACGCCGA, the switch fluorescence ratio is reported as 1.55. With TCGACGCGGA the switch fluorescence ratio was 3.27. In the case of TCGAGAGGCC, the switch fluorescence ratio is reported as 1.55. Work on TCGAGAGTCA yielded a switch fluorescence ratio of 0.976. In the case of TCGAGCCCTA, the switch fluorescence ratio is reported as 1.04. TCGAGCCTAC gave a switch fluorescence ratio of 1.68. With TCGAGCTCGT the switch fluorescence ratio was 1.04. TCGAGCTGTT showed a switch fluorescence ratio of 1.06. TCGAGGAAAT was tested, and the switch fluorescence ratio was 1.06. TCGAGGTATC gave a switch fluorescence ratio of 0.97. Sequence TCGAGTAACC has a switch fluorescence ratio of 1.04. With TCGAGTCTGA the switch fluorescence ratio was 1.01. TCGATACAGC gave a switch fluorescence ratio of 1.01. In the case of TCGATAGAC, the switch fluorescence ratio is reported as 1.11. With TCGATAGTGG the switch fluorescence ratio was 1.01. For TCGATCAGGC, the switch fluorescence ratio was 1.05. TCGATCCCTC showed a switch fluorescence ratio of 0.98. TCGATGTTAG was tested, and the switch fluorescence ratio was 0.943. TCGATTAGAA gave a switch fluorescence ratio of 0.971. For TCGCAAGGAT, the switch fluorescence ratio was 1.08. TCGCACACTT gave a switch fluorescence ratio of 1.32. In the case of TCGCACATAG, the switch fluorescence ratio is reported as 6.06. With TCGCACCCCC the switch fluorescence ratio was 2.98. For TCGCAGACCG, the switch fluorescence ratio was 1.11. TCGCAGTCCC showed a switch fluorescence ratio of 1.82. In the case of TCGCAGTCTA, the switch fluorescence ratio is reported as 1.16. TCGCATAGAA showed a switch fluorescence ratio of 1.07. With TCGCCCCGA the switch fluorescence ratio was 1.06. In the case of TCGCCCGGGC, the switch fluorescence ratio is reported as 1.03. TCGCCGCCGG showed a switch fluorescence ratio of 1.05. In the case of TCGCCGGAGA, the switch fluorescence ratio is reported as 1.01. TCGCCGGGGA gave a switch fluorescence ratio of 1.04. TCGCCGGTGT showed a switch fluorescence ratio of 1.01. With TCGCGACAA the switch fluorescence ratio was 1.02. In the case of TCGCGACCTA, the switch fluorescence ratio is reported as 0.999. Work on TCGCGATTC yielded a switch fluorescence ratio of 1.24. TCGCGCAGTG was tested, and the switch fluorescence ratio was 1. For TCGCGCCCCC, the switch fluorescence ratio was 1.87. For TCGCGCCTCC, the switch fluorescence ratio was 2.37. In the case of TCGCGGAAGG, the switch fluorescence ratio is reported as 1.02. TCGCGGGATT was tested, and the switch fluorescence ratio was 1.01. TCGCGGGCCT gave a switch fluorescence ratio of 1.03. In the case of TCGCGGGGCT, the switch fluorescence ratio is reported as 1.05. TCGCGGTGTG was tested, and the switch fluorescence ratio was 1.03. Sequence TCGCGGTTG has a switch fluorescence ratio of 1.03. TCGCTACTTT showed a switch fluorescence ratio of 1.08. For TCGCTATTCA, the switch fluorescence ratio was 1.02. In the case of TCGCTGAGAT, the switch fluorescence ratio is reported as 0.987. With TCGCTGGGGA the switch fluorescence ratio was 1.04. For TCGGAAAAGC, the switch fluorescence ratio was 1.01. TCGGAAGCTC gave a switch fluorescence ratio of 1.4. TCGGAAGTAA was tested, and the switch fluorescence ratio was 1.07. In the case of TCGGACCGGT, the switch fluorescence ratio is reported as 1. In the case of TCGGAGGGTC, the switch fluorescence ratio is reported as 1.03. Sequence TCGGAGGTTG has a switch fluorescence ratio of 0.911. With TCGGATCGTG the switch fluorescence ratio was 1.07. For TCGGATCTTT, the switch fluorescence ratio was 0.982. TCGGATTTAT showed a switch fluorescence ratio of 1. TCGGCCAAGG gave a switch fluorescence ratio of 1.13. TCGGCCGGGC was tested, and the switch fluorescence ratio was 0.986. TCGGCGCCCC gave a switch fluorescence ratio of 1.01. In the case of TCGGCGCCGG, the switch fluorescence ratio is reported as 1.03. TCGGCGGGGG was tested, and the switch fluorescence ratio was 1.07. TCGGCTAGGG was tested, and the switch fluorescence ratio was 0.994. Work on TCGGCTTAAG yielded a switch fluorescence ratio of 0.967. TCGGGAAGTC was tested, and the switch fluorescence ratio was 1.03. With TCGGGACCTG the switch fluorescence ratio was 1.04. In the case of TCGGGAGATG, the switch fluorescence ratio is reported as 0.994. With TCGGGCATTA the switch fluorescence ratio was 1.05. In the case of TCGGGCGA, the switch fluorescence ratio is reported as 1.01. In the case of TCGGGCGCGC, the switch fluorescence ratio is reported as 1.1. In the case of TCGGGCGCTC, the switch fluorescence ratio is reported as 1. For TCGGGGATAA, the switch fluorescence ratio was 1.01. Sequence TCGGGTGCCA has a switch fluorescence ratio of 0.969. Work on TCGGGTGGA yielded a switch fluorescence ratio of 0.98. In the case of TCGGGTGGGT, the switch fluorescence ratio is reported as 1.03. Work on TCGGTGAAAA yielded a switch fluorescence ratio of 0.976. For TCGGTGATTT, the switch fluorescence ratio was 0.989. Sequence TCGGTGCACC has a switch fluorescence ratio of 1. Work on TCGGTGTGTG yielded a switch fluorescence ratio of 0.958. TCGTAAATAG showed a switch fluorescence ratio of 1.1. Sequence TCGTAAGGCT has a switch fluorescence ratio of 1.01. With TCGTACACG the switch fluorescence ratio was 1.05. With TCGTACTAAG the switch fluorescence ratio was 1.01. TCGTACTTGC was tested, and the switch fluorescence ratio was 0.998. Work on TCGTAGATGG yielded a switch fluorescence ratio of 1. Sequence TCGTAGATTC has a switch fluorescence ratio of 1.03. In the case of TCGTAGGGCA, the switch fluorescence ratio is reported as 1.05. TCGTATGAAA gave a switch fluorescence ratio of 1.02. TCGTCAAAGG gave a switch fluorescence ratio of 1.01. TCGTCCAGCA showed a switch fluorescence ratio of 2.32. Work on TCGTCGATGG yielded a switch fluorescence ratio of 1.02. TCGTCGGAAA gave a switch fluorescence ratio of 1.05. TCGTCGGAGC was tested, and the switch fluorescence ratio was 1.02. With TCGTCTGG the switch fluorescence ratio was 0.985. TCGTCTGTCT gave a switch fluorescence ratio of 1.02. TCGTCTTTCT was tested, and the switch fluorescence ratio was 1.01. TCGTGACATA was tested, and the switch fluorescence ratio was 0.983. TCGTGACGA showed a switch fluorescence ratio of 1.05. Work on TCGTGCCTA yielded a switch fluorescence ratio of 1.02. In the case of TCGTGCTATG, the switch fluorescence ratio is reported as 1.03. TCGTGCTGCC gave a switch fluorescence ratio of 1. TCGTGCTTTC was tested, and the switch fluorescence ratio was 1.02. Sequence TCGTGGAAAA has a switch fluorescence ratio of 0.981. TCGTGGACCT was tested, and the switch fluorescence ratio was 1.1. TCGTGGGACG showed a switch fluorescence ratio of 1.01. With TCGTGGGGAA the switch fluorescence ratio was 1.01. Work on TCGTGTGAGC yielded a switch fluorescence ratio of 0.955. Work on TCGTTATACC yielded a switch fluorescence ratio of 1.14. TCGTTCATTA showed a switch fluorescence ratio of 1.03. With TCGTTCGTGG the switch fluorescence ratio was 1.02. TCGTTCTGTA gave a switch fluorescence ratio of 0.984. Sequence TCGTTCTTT has a switch fluorescence ratio of 0.953. In the case of TCGTTGAAGA, the switch fluorescence ratio is reported as 1.01. For TCGTTGCAGC, the switch fluorescence ratio was 0.999. In the case of TCGTTGGACA, the switch fluorescence ratio is reported as 0.986. TCGTTGGTAA was tested, and the switch fluorescence ratio was 1.03. In the case of TCGTTGTGCA, the switch fluorescence ratio is reported as 1.01. TCGTTGTGTC showed a switch fluorescence ratio of 0.965. TCTAAATTCA showed a switch fluorescence ratio of 1.01. TCTAAGAGAT gave a switch fluorescence ratio of 0.978. Work on TCTAAGATGC yielded a switch fluorescence ratio of 1.22. For TCTAAGCATT, the switch fluorescence ratio was 1.1. Work on TCTAAGTCAT yielded a switch fluorescence ratio of 0.993. For TCTAATCATT, the switch fluorescence ratio was 1. TCTACATTGG showed a switch fluorescence ratio of 1.01. With TCTACTTTTT the switch fluorescence ratio was 0.995. Sequence TCTAGACGTG has a switch fluorescence ratio of 0.976. For TCTAGAGGAT, the switch fluorescence ratio was 0.986. With TCTAGAGTTA the switch fluorescence ratio was 1.01. Work on TCTAGATCGT yielded a switch fluorescence ratio of 1.02. For TCTAGGGACT, the switch fluorescence ratio was 0.954. Sequence TCTAGGTAGT has a switch fluorescence ratio of 1.05. Sequence TCTAGTCAGT has a switch fluorescence ratio of 0.978. Work on TCTATCAGGT yielded a switch fluorescence ratio of 0.959. With TCTATGAGG the switch fluorescence ratio was 0.978. Sequence TCTATGCGTT has a switch fluorescence ratio of 1.06. With TCTATGGGC the switch fluorescence ratio was 1.01. TCTATGTAAC was tested, and the switch fluorescence ratio was 1.03. Sequence TCTATGTCAC has a switch fluorescence ratio of 1.05. Work on TCTATGTCAG yielded a switch fluorescence ratio of 0.973. Work on TCTATGTGCC yielded a switch fluorescence ratio of 0.948. In the case of TCTATTCTT, the switch fluorescence ratio is reported as 0.971. TCTATTGGAG showed a switch fluorescence ratio of 0.999. TCTATTTCGG was tested, and the switch fluorescence ratio was 0.968. For TCTCAAAAGT, the switch fluorescence ratio was 0.987. With TCTCAATCG the switch fluorescence ratio was 0.992. Work on TCTCACAGCA yielded a switch fluorescence ratio of 1.22. With TCTCAGATCT the switch fluorescence ratio was 1.02. TCTCAGCAAC was tested, and the switch fluorescence ratio was 3.39. TCTCAGCATG was tested, and the switch fluorescence ratio was 1.37. TCTCAGCTGC was tested, and the switch fluorescence ratio was 1.32. TCTCAGGCTC showed a switch fluorescence ratio of 1.04. Work on TCTCAGTACA yielded a switch fluorescence ratio of 1.04. TCTCAGTATC showed a switch fluorescence ratio of 1.08. For TCTCAGTGAG, the switch fluorescence ratio was 0.987. For TCTCAGTGGG, the switch fluorescence ratio was 0.964. Work on TCTCAGTTC yielded a switch fluorescence ratio of 1.41. With TCTCATAGCC the switch fluorescence ratio was 1.68. Sequence TCTCATCCAG has a switch fluorescence ratio of 1.42. Sequence TCTCCACCCC has a switch fluorescence ratio of 1.17. Work on TCTCCCACAA yielded a switch fluorescence ratio of 2.74. TCTCCCTCAT gave a switch fluorescence ratio of 1.12. TCTCCGACGT was tested, and the switch fluorescence ratio was 2.54.
